# Reference: the supplement of paper PMC8728848
# The list shows a part of the results.
# B1: SJA (Sophora japonica) (protein)
# chain: FLGLFNSGGYSSSYQIVAVEFDTYINEWDPKTRHIGIDINSINSTKTVTWGWENGEVAIVLISYKAATETLTVSLTYPSSQTSYILSAAVDLKSILPEWVRIGF
# Tests used:
# Assay in all cases: glycan array binding signal (z-score within array); higher = stronger binding
# Settings in all cases: glycan notation: IUPAC condensed, linker removed
# [1] = target: Gal(b1-3)GlcNAc(b1-3)GalNAc
# How it was run: (§1)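 The binding signal is a Z-score computed within each array. Data were drawn from 3228 arrays in the Consortium for Functional Glycomics database, restricted to those with a known protein sequence. Scores were averaged over arrays of the same protein sequence at different concentrations or buffers, and over linkers, and negative values can be taken as non-binding.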
# [2] = target: Gal(b1-3)GlcNAc(b1-6)Gal(b1-4)GlcNAc
# How it was run: as §1
# [3] = target: Gal(b1-3)GlcNAc(b1-6)GalNAc
# How it was run: as §1
# [4] = target: Gal(b1-3)GlcNAc(b1-6)[Gal(b1-3)]GalNAc
# How it was run: as §1
# Gal(b1-3)GlcNAc6S = target: Gal(b1-3)GlcNAc6S
# How it was run: as §1
# [5] = target: Gal(b1-3)[Fuc(a1-4)]GlcNAc
# How it was run: as §1
# [6] = target: Gal(b1-3)[Fuc(a1-4)]GlcNAc(b1-2)Man
# How it was run: as §1
# [7] = target: Gal(b1-3)[Fuc(a1-4)]GlcNAc(b1-2)Man(a1-3)[Gal(b1-3)[Fuc(a1-4)]GlcNAc(b1-2)Man(a1-6)]Man(b1-4)GlcNAc(b1-4)[Fuc(a1-6)]GlcNAc
# How it was run: as §1
# [8] = target: Gal(b1-3)[Fuc(a1-4)]GlcNAc(b1-3)Gal(b1-3)[Fuc(a1-4)]GlcNAc
# How it was run: as §1
# [9] = target: Gal(b1-3)[Fuc(a1-4)]GlcNAc(b1-3)Gal(b1-4)GlcNAc
# How it was run: as §1
# [10] = target: Gal(b1-3)[Fuc(a1-4)]GlcNAc(b1-3)Gal(b1-4)[Fuc(a1-3)]GlcNAc
# How it was run: as §1
# [11] = target: Gal(b1-3)[Fuc(a1-4)]GlcNAc(b1-6)GalNAc
# How it was run: as §1
# [12] = target: Gal(b1-3)[GlcNAc(b1-6)]GalNAc
# How it was run: as §1
# [13] = target: Gal(b1-3)[Neu5Ac(a2-6)]GalNAc
# How it was run: as §1
# [14] = target: Gal(b1-3)[Neu5Ac(a2-6)]GlcNAc(b1-4)Gal(b1-4)Glc
# How it was run: as §1
# [15] = target: Gal(b1-3)[Neu5Ac(a2-6)]GlcNAc(b1-6)Gal(b1-4)Glc
# How it was run: as §1
# [16] = target: Gal(b1-3)[Neu5Ac(b2-6)]GalNAc
# How it was run: as §1
# Gal(b1-4)Gal = target: Gal(b1-4)Gal
# How it was run: as §1
# [17] = target: Gal(b1-4)GalNAc(a1-3)[Fuc(a1-2)]Gal(b1-4)GlcNAc
# How it was run: as §1
# [18] = target: Gal(b1-4)GalNAc(b1-3)[Fuc(a1-2)]Gal(b1-4)GlcNAc
# How it was run: as §1
# Gal(b1-4)Glc = target: Gal(b1-4)Glc
# How it was run: as §1
# Gal(b1-4)Glc6S = target: Gal(b1-4)Glc6S
# How it was run: as §1
binder,measurement,setting,value
B1,glycan array binding signal (z-score),[1],-0.225
same,glycan array binding signal (z-score),[2],-0.272
same,glycan array binding signal (z-score),[3],-0.298
same,glycan array binding signal (z-score),[4],-0.253
same,glycan array binding signal (z-score),Gal(b1-3)GlcNAc6S,-0.412
same,glycan array binding signal (z-score),[5],-0.178
same,glycan array binding signal (z-score),[6],-0.17
same,glycan array binding signal (z-score),[7],0.39
same,glycan array binding signal (z-score),[8],-0.116
same,glycan array binding signal (z-score),[9],-0.167
same,glycan array binding signal (z-score),[10],-0.196
same,glycan array binding signal (z-score),[11],-0.221
same,glycan array binding signal (z-score),[12],-0.322
same,glycan array binding signal (z-score),[13],-0.205
same,glycan array binding signal (z-score),[14],-0.241
same,glycan array binding signal (z-score),[15],-0.205
same,glycan array binding signal (z-score),[16],-0.147
same,glycan array binding signal (z-score),Gal(b1-4)Gal,-0.317
same,glycan array binding signal (z-score),[17],-0.196
same,glycan array binding signal (z-score),[18],-0.187
same,glycan array binding signal (z-score),Gal(b1-4)Glc,-0.068
same,glycan array binding signal (z-score),Gal(b1-4)Glc6S,-0.076
